Experimental data reported in the supplement of paper PMC4604168 (melanoma cell lines).
The list shows a part of the results. Repeats are few or missing, and single values can be far off.

Legend:
Test in all cases: cell count relative to DMSO control; melanoma cells; higher = more viable cells
Settings in all cases: library dose: standard library concentration; 72 h
G361 = system: G361
IPC-298 = system: IPC-298
IST-MEL1 = system: IST-MEL1
LB2518-MEL = system: LB2518-MEL
LOXIMVI = system: LOXIMVI
MEL-HO = system: MEL-HO
MZ2-MEL = system: MZ2-MEL
MeWo = system: MeWo
RPMI7951 = system: RPMI7951
RVH-421 = system: RVH-421
SkMel28 = system: SkMel28
SkMel2 = system: SkMel2
SkMel30 = system: SkMel30
SkMel5 = system: SkMel5
UACC257 = system: UACC257
UACC62 = system: UACC62
WM115 = system: WM115
WM1716 = system: WM1716
WM1745 = system: WM1745
WM3526 = system: WM3526
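Note: cells treated in 1,536-well plates, then fixed and DAPI-stained, with nuclei counted from automated high-throughput microscope images.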

Row | SMILES | cell count (G361) [%] | cell count (IPC-298) [%] | cell count (IST-MEL1) [%] | cell count (LB2518-MEL) [%] | cell count (LOXIMVI) [%] | cell count (MEL-HO) [%] | cell count (MZ2-MEL) [%] | cell count (MeWo) [%] | cell count (RPMI7951) [%] | cell count (RVH-421) [%] | cell count (SkMel28) [%] | cell count (SkMel2) [%] | cell count (SkMel30) [%] | cell count (SkMel5) [%] | cell count (UACC257) [%] | cell count (UACC62) [%] | cell count (WM115) [%] | cell count (WM1716) [%] | cell count (WM1745) [%] | cell count (WM3526) [%]
1 | Nc1cccc2c1CN(C1CCC(=O)NC1=O)C2=O (centres undefined) [lenalidomide] + O=C(Nc1cccc(Cl)c1)Nc1ncc(CCNc2ncnc3ccsc23)s1 [SNS314] (first compound 5 µM, partner dose 0.004 µM) | 77.1 | 106 | 58.6 | 73.6 | 70 | 78.9 | 101 | 59.5 | 67.4 | 93 | 75.5 | 79.2 | 93.7 | 75.9 | 67 | 63.6 | 38.8 | 59.4 | 63 | 77.9
2 | Clc1ccc(Nc2nnc(Cc3ccncc3)c3ccccc23)cc1 [vatalanib] + Cc1nc(Nc2ncc(C(=O)Nc3c(C)cccc3Cl)s2)cc(N2CCN(CCO)CC2)n1 [dasatanib] (first compound 10 µM, partner dose 0.02 µM) | 61.5 | 58.7 | 53.6 | 60.8 | 7.13 | 49.6 | 27.2 | 71.4 | 23 | 56 | 48.8 | 71.7 | 78.7 | 52.8 | 62.2 | 60.1 | 45 | 51.5 | 24.2 | 80.3
3 | C#Cc1cccc(Nc2ncnc3cc(OCCOC)c(OCCOC)cc23)c1 [erlotinib] + NC(=O)Nc1cc(-c2cccc(F)c2)sc1C(=O)N[C@H]1CCCNC1 [AZD7762] (first compound 4 µM, partner dose 0.1 µM) | 70.8 | 66.2 | 79.6 | 51.2 | 80.8 | 53.2 | 95.8 | 73 | 42.7 | 86.4 | 27.1 | 80 | 76.1 | 68.2 | 121 | 56.1 | 63.7 | 75.5 | 47.6 | 50
4 | Clc1ccc(Nc2nnc(Cc3ccncc3)c3ccccc23)cc1 [vatalanib] + O=C(O)C(=O)Nc1sc2c(c1C(=O)O)CCNC2 [TCS401] (first compound 10 µM, partner dose 8.33333 µM) | 79.2 | 70.9 | 74.9 | 120 | 218 | 64.5 | 80.6 | 70.8 | 72.5 | 105 | 85.8 | 86.9 | 98.6 | 75.8 | 86.4 | 97.7 | 87.2 | 87 | – | 76.2
5 | Clc1ccc(Nc2nnc(Cc3ccncc3)c3ccccc23)cc1 [vatalanib] + COc1ccc2c(c1)CCC1C2CCC2(C)C(NCCCCCCN3C(=O)C=CC3=O)CCC12 [U73122] (first compound 10 µM, partner dose 2 µM) | 68.1 | 68.2 | 71.1 | 80.6 | 63.2 | 56.7 | 65.1 | 51.2 | 22.3 | 71.4 | 64.8 | 59.1 | 89.7 | 45.8 | 75.4 | 61.7 | 53.8 | 73.7 | – | 54
6 | OCc1c[nH]c2ccccc12 [Indole-3-carbinol] + COC(=O)c1sccc1S(=O)(=O)Nc1ccc(Nc2ccccc2)cc1OC [GSK0660] (first compound 4 µM, partner dose 5 µM) | 104 | 116 | 120 | 113 | 109 | 117 | 99 | 113 | 152 | 126 | 79 | 106 | 103 | 117 | 106 | 89.6 | 110 | 120 | – | 119
7 | COCC[n+]1c2c(n(Cc3cnccn3)c1C)C(=O)c1ccccc1C2=O + CCN(CC)CCCCNc1ncc2cc(-c3cc(OC)cc(OC)c3)c(NC(=O)NC(C)(C)C)nc2n1 [PD173074] (first compound 0.002 µM, partner dose 0.5 µM) | 99.2 | 40.6 | 48.7 | 30.5 | 251 | 101 | 32.8 | 47.8 | 39.9 | 104 | 57.9 | 29.8 | 61.8 | 56.4 | 27.9 | 70 | 46.3 | 68.2 | 88.2 | 37.7
8 | Clc1ccc(Nc2nnc(Cc3ccncc3)c3ccccc23)cc1 [vatalanib] + CCN(CC)CCCCNc1ncc2cc(-c3cc(OC)cc(OC)c3)c(NC(=O)NC(C)(C)C)nc2n1 [PD173074] (first compound 10 µM, partner dose 0.5 µM) | 80.7 | 72.3 | 82.1 | 72.5 | 74.2 | 70.1 | 69.8 | 59.7 | 61.9 | 66.2 | 84 | 75.3 | 86.2 | 69.7 | 70.1 | 74.2 | 77.3 | 79.8 | – | 68.8
9 | C#Cc1cccc(Nc2ncnc3cc(OCCOC)c(OCCOC)cc23)c1 [erlotinib] + Cn1c(Nc2ccc(C(F)(F)F)cc2)nc2cc(Oc3ccnc(-c4ncc(C(F)(F)F)[nH]4)c3)ccc21 [CHIR265] (first compound 4 µM, partner dose 0.4 µM) | 26.3 | 36.9 | 68.2 | 31.8 | 116 | 61.8 | 53.2 | 55.7 | 35.1 | 46.7 | 39.1 | 48 | 68.1 | 33.7 | 75.6 | 24.3 | 35 | 70.5 | 52.1 | 36.5
10 | O=C(CCCCCCC(=O)Nc1ccccc1)NO [vorinostat] + Oc1nc(-c2ccc(C(F)(F)F)cc2)nc2c1CSCC2 [XAV939] (first compound 0.4 µM, partner dose 10 µM) | 78.9 | 82.5 | 99.9 | 72.6 | 96.6 | 101 | 73.2 | 74.3 | 65.3 | 84.8 | 43.5 | 73.1 | 72.7 | 51.4 | 56.8 | 55.6 | 95.4 | 80.6 | 56.6 | 91.9
11 | Cn1c(Nc2ccc(C(F)(F)F)cc2)nc2cc(Oc3ccnc(-c4ncc(C(F)(F)F)[nH]4)c3)ccc21 + O=C1NC(=O)/C(=C/c2ccc(-c3ccc(F)cc3O)o2)S1 [AS252424] (first compound 0.4 µM, partner dose 5 µM) | 15.3 | 43.5 | 85.9 | 33.5 | 67.3 | 57.3 | 60.6 | 61.7 | 50 | 43.7 | 41.6 | 44.2 | 62.7 | 39.8 | 65 | 66.4 | 28.4 | 53.7 | 42.9 | 25.8
12 | COCC[n+]1c2c(n(Cc3cnccn3)c1C)C(=O)c1ccccc1C2=O + COc1cc(Nc2ncc(F)c(Nc3ccc4c(n3)NC(=O)C(C)(C)O4)n2)cc(OC)c1OC [Tamatinib] (first compound 0.002 µM, partner dose 2 µM) | 67 | 40.4 | 41.5 | 17.5 | 22.8 | 70.8 | 29.5 | 48.5 | 48.5 | 75.8 | 25.1 | 27.2 | 58.7 | 28.2 | 20.7 | 54.8 | 48.6 | 66.9 | 28.8 | 44.9
13 | Clc1ccc(Nc2nnc(Cc3ccncc3)c3ccccc23)cc1 [vatalanib] + Cc1cc([N+](=O)[O-])ccc1NS(=O)(=O)c1cc(Cl)ccc1Cl [FH535] (first compound 10 µM, partner dose 5 µM) | 23.8 | 46.5 | 51.3 | 79.4 | 60.4 | 33.7 | 59.9 | 71.4 | 62.2 | 41.5 | 53.5 | 70.1 | 89.8 | 55.5 | 58.7 | 112 | 89.7 | 85.8 | – | 88.3
14 | OCc1c[nH]c2ccccc12 [Indole-3-carbinol] + COc1cc(N2CCC(N3CCN(C)CC3)CC2)ccc1Nc1ncc(Cl)c(Nc2ccccc2S(=O)(=O)C(C)C)n1 [NVP-TAE684] (first compound 4 µM, partner dose 0.4 µM) | 77.3 | 85.6 | 104 | 104 | 85.4 | 85.4 | 95.2 | 68.1 | 65.2 | 105 | 98.8 | 63 | 101 | 74.2 | 78.6 | 77.5 | 82.8 | 88.8 | – | 79.6
15 | COCC[n+]1c2c(n(Cc3cnccn3)c1C)C(=O)c1ccccc1C2=O + O=C(Nc1cccc(Cl)c1)Nc1ncc(CCNc2ncnc3ccsc23)s1 [SNS314] (first compound 0.002 µM, partner dose 0.004 µM) | 40.8 | 48.8 | 36.7 | 31.4 | 45.3 | 58.9 | 27.5 | 30 | 38.2 | 87.4 | 22.8 | 37.2 | 70 | 34.7 | 22.6 | 74.8 | 31.8 | 40.4 | 71.4 | 31
